# The supplement of paper PMC4723716
# ± gives the uncertainty stated by the source. In all, about 9,900 compounds were measured (“viability index relative to DMSO control”: median about 1, lowest 2% from about 0.85 on). The list shows a part of the results.
# Tested on: Plasmodium falciparum NF54 stage V gametocytes
# Test: viability index relative to DMSO control (fraction); higher = less gametocyte killing
# Details: 2.5 µM, library set: Broad Institute DOS, incubation time: 72 h
# Outline: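 In 1,536-well plates, 10 µl of serum-free medium holding P. falciparum NF54 stage V gametocytes (0.75% gametocytemia, 1.25% hematocrit) received compound at 2.5 µM for 72 hr at 37°C in low oxygen. After one to two hours with 3 µl of 2.5 µM MitoTracker Red CMXRos containing 0.13% saponin, red particles of 20–70 µm2 were counted in a single field per well. Viability index is reported as the particle count over the plate mean of wells treated with solvent only.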
row,SMILES,viability index
1,O=C(Nc1ccc(Cl)cc1)N1C[C@@H]2[C@H](c3ccccc31)[C@H](CO)N2CC1CCCCC1,1.03 ± 0.14
2,O=C(Nc1ccccc1F)N[C@H]1CC[C@H](CCNC(=O)C2CC2)O[C@H]1CO,1.13 ± 0.044
3,CCCC(O)C#Cc1cnc2c(c1)C(=O)N([C@H](C)CO)C[C@H](C)[C@H](CN(C)S(=O)(=O)c1ccc(C#N)cc1)O2 (some centres not stated),1.06 ± 0.04
4,CO[C@@H]1CN(C)C(=O)c2cc(NC(=O)Nc3ccccc3Cl)ccc2OC[C@@H](C)N(S(=O)(=O)CC(F)(F)F)C[C@H]1C,1.06 ± 0.066
5,O=C(C[C@H]1CC[C@H]2[C@@H](COC[C@@H](O)CN2CCC(F)(F)F)O1)NCC1CC1,1.13 ± 0.049
6,COCC(=O)N1CC[C@@]2(CC1)CN(Cc1ccccc1Cl)[C@H](CO)c1[nH]c3cc(OC)ccc3c21,1.023 ± 0.0089
7,COc1ccc([C@H]2C/C=C\C[C@H](c3ccc4c(c3)OCO4)NC(=O)CCC(=O)N2)c(OC)c1,1.041 ± 0.01
8,COc1ccc2c(c1)n(C)c1[C@@H](CO)N(C[C@]3(CCN(C)CC3)c21)C(=O)c1ccc(F)cc1,1.05 ± 0.022
9,C[C@H](CO)N1C[C@H](C)[C@H](CN(C)C(=O)Nc2ccc(C(F)(F)F)cc2)Oc2ccc(NC(=O)C3CCCCC3)cc2C1=O,0.971 ± 0.023
10,CC(C)NC(=O)N1[C@H](CO)[C@@H]2c3ccccc3N(C)C[C@@H]21,1.03 ± 0.014
11,O=C(C[C@H]1CC[C@H]2NC[C@@H](O)COC[C@@H]2O1)Nc1nccs1,0.991 ± 0.05
12,C[C@@H]1CN([C@H](C)CO)S(=O)(=O)c2ccc(C#CCC3CCCC3)cc2O[C@@H]1CN(C)C(=O)c1cnccn1,0.9131 ± 0.0012
13,C[C@H](NC(=O)[C@H]1[C@H](CO)[C@H]2Cn3c(cccc3=O)[C@@H]1N2C(=O)C1CCC1)c1ccccc1,1.07 ± 0.085
14,CCN1CC(=O)N2[C@H](CO)[C@@H](c3ccc(Br)cc3)[C@H]2C1,0.949 ± 0.032
15,CCC(=O)N1[C@H](CO)[C@@H](c2ccccc2)C12CN(C(=O)Nc1ccccc1F)C2,1.11 ± 0.13
16,COc1ccc2c3c([nH]c2c1)[C@H](CO)NC[C@]31CCN(CC1)C(=O)Cc1cccnc1,1.02 ± 0.03
17,COc1ccc2c3c([nH]c2c1)[C@H](CO)N(C[C@]31CN(C1)C(=O)CC1CC1)C(=O)c1cccc(F)c1,0.978 ± 0.072
18,Cc1noc(C)c1NC(=O)Nc1ccc2c(c1)C(=O)N(C)[C@H]1CC[C@@H](CC(=O)N[C@@H]3CCN(Cc4ccccc4)C3)O[C@H]1CO2,0.927 ± 0.11
19,C/C=C/c1ccc([C@H]2[C@@H](CO)N3C(=O)CN(C(=O)Nc4ccc(F)cc4)C[C@H]23)cc1,1.08 ± 0.067
20,COc1ccccc1NC(=O)N1[C@@H]2CNC[C@H]1[C@H]2c1ccc(-c2ccccc2C)cc1,1.06 ± 0.014
21,CCC(=O)NC[C@H]1N[C@H](CO)[C@@H]1c1ccc(-c2cccnc2)cc1,1.06 ± 0.034
22,COc1ccc(S(=O)(=O)N(C)C[C@@H]2Oc3ccc(NC(=O)Cc4cn(C)c5ccccc45)cc3C(=O)N([C@H](C)CO)C[C@H]2C)cc1,1.02 ± 0.062
23,O=C(C1CCOCC1)N1CC2(C1)[C@@H](c1ccccc1)[C@H](CO)N2Cc1ccccc1F,1.07 ± 0.025
24,Cc1noc(C)c1NC(=O)N(C)C[C@H]1Oc2ccc(NC(=O)Cc3cn(C)c4ccccc34)cc2CC(=O)N([C@H](C)CO)C[C@@H]1C,1.04 ± 0.045

row,SMILES,viability index
1,C/C=C/c1ccccc1[C@@H]1[C@@H](C#N)N(C(=O)CN2CCOCC2)[C@H]1CO,1.14 ± 0.019
2,CO[C@H](C(=O)N(C)C[C@@H]1OCc2ccccc2-c2ccccc2C(=O)N([C@@H](C)CO)C[C@H]1C)c1ccccc1,0.928 ± 0.063
3,O=C(C[C@@H]1C[C@H]2c3cc(NC(=O)CC4CC4)ccc3O[C@H]2[C@H](CO)O1)NCC1CC1,1.05 ± 0.049
4,CC(C)C#Cc1ccc([C@H]2[C@H](CO)N3C(=O)CN(C(=O)Cc4ccccc4)C[C@@H]23)cc1,1.08 ± 0.08
5,CCC(=O)N1CC2(C1)[C@H](c1ccc(-c3ccc(F)cc3)cc1)[C@@H](CO)N2C(C)=O,1.02 ± 0.016
6,COc1ccc2c3c([C@@H](CO)NC[C@]33CN(C3)C(=O)c3cccc(F)c3)n(C)c2c1,1.01 ± 0.012
7,O=C(CC1CC1)N1[C@H](CO)[C@@H]2c3ccccc3N(S(=O)(=O)c3ccccc3F)C[C@@H]21,0.995 ± 0.11
8,O=C(Nc1ccc(F)cc1)N1[C@@H]2CNC[C@H]1[C@@H]2c1ccc(-c2cccnc2)cc1,1.12 ± 0.092
9,CCCN1C[C@@H](C)[C@H](OC)CN(C)C(=O)c2ccc(NS(=O)(=O)c3cn(C)cn3)cc2OC[C@@H]1C,1.07 ± 0.023
10,CO[C@H]1CN(C)C(=O)c2cc(NC(=O)C3CC3)ccc2OC[C@@H](C)N(Cc2cc(F)ccc2F)C[C@@H]1C,1.03 ± 0.048
11,CO[C@H]1CN(C)C(=O)c2ccc(NC(=O)c3cc(C)on3)cc2OC[C@H](C)NC[C@@H]1C,0.863 ± 0.24
12,COc1ccc2c3c([C@@H](CO)N(Cc4cccc(Cl)c4)C[C@]33CCN(CC3)C(=O)C3CC3)n(C)c2c1,0.945 ± 0.045
13,COCC(=O)Nc1ccc2c(c1)C(=O)N(C)C[C@H](OC)[C@H](C)CN(CCc1ccccc1)[C@H](C)CO2,0.8876 ± 0.0034
14,O=C(Cc1ccncc1)NCC[C@@H]1CC[C@@H](NS(=O)(=O)c2ccccc2Cl)[C@H](CO)O1,1.16 ± 0.088
15,CC(C)(O)C#Cc1ccc([C@@H]2[C@H]3CN(S(C)(=O)=O)CCCCN3[C@H]2CO)cc1,1.01 ± 0.052
16,COc1ccc(C(=O)Nc2ccc3c(c2)C(=O)N(C)[C@@H]2CC[C@@H](CC(=O)NCC4CC4)O[C@@H]2CO3)cc1,1.03 ± 0.11
17,Cc1ccc(-c2ccccc2[C@H]2[C@@H](CO)N(S(C)(=O)=O)[C@H]2C#N)cc1,1.13 ± 0.088
18,OC[C@H]1Nc2ccc(C#Cc3ccc(F)cc3)cc2[C@@H]2[C@H]1CCN2Cc1ccc2c(c1)OCO2,1.06 ± 0.019
19,COCC(=O)Nc1ccc2c(c1)C(=O)N(C)[C@@H]1CC[C@@H](CC(=O)NCCCN(C)C)O[C@@H]1CO2,0.98 ± 0.039
20,COc1ccc(S(=O)(=O)N(C)C[C@@H]2Oc3c(cccc3N(C)C)C(=O)N([C@H](C)CO)C[C@@H]2C)cc1,1.01 ± 0.049
21,CC(C)CC#Cc1ccc([C@H]2[C@H]3CN(C(=O)Nc4cc(F)ccc4F)CC(=O)N3[C@H]2CO)cc1,1.09 ± 0.032
22,CC(C)NC(=O)N1CC[C@@H]2[C@@H](CO)N(C)c3ccc(-c4ccc(F)cc4)cc3[C@@H]21,1.06 ± 0.021
23,CN1C(=O)c2cc(NC(=O)c3cnccn3)ccc2OC[C@@H]2O[C@H](CC(=O)N[C@@H]3CCN(Cc4ccccc4)C3)CC[C@H]21,1.05 ± 0.031
24,COc1cccc(-c2ccc3n(c2=O)C[C@H]2[C@H](CO)[C@@H](C(=O)N(C)C)[C@@H]3N2C(=O)c2ccccn2)c1,1.05 ± 0.052

row,SMILES,viability index
1,COc1ccccc1CNC(=O)C[C@@H]1C=C[C@@H](NC(=O)CC2CC2)[C@@H](CO)O1,0.976 ± 0.08
2,COCC#Cc1ccc([C@@H]2[C@@H](CO)N3CCCCN(C(=O)NC4CCCC4)C[C@H]23)cc1,1.05 ± 0.029
3,C[C@@H]1CN([C@H](C)CO)C(=O)CCCn2cc(nn2)CO[C@@H]1CN(C)C(=O)Nc1cccc2ccccc12,1.038 ± 0.01
4,CO[C@H](CN(C)S(=O)(=O)c1cn(C)cn1)[C@H](C)CN(C(=O)Nc1ccc(C(F)(F)F)cc1)[C@H](C)CO,0.992 ± 0.096
5,C[C@H](CO)N1C[C@H](C)[C@H](CN(C)C(=O)Nc2ccc3c(c2)OCCO3)OCc2cnnn2CCCC1=O,1.03 ± 0.013
6,COc1ccc(S(=O)(=O)N(C)C[C@H]2Oc3c(NC(=O)c4nc5ccccc5s4)cccc3C(=O)N([C@H](C)CO)C[C@@H]2C)cc1,0.996 ± 0.013
7,COCCNC(=O)C[C@@H]1CC[C@H]2[C@@H](COC[C@H](O)CN2C(=O)c2cc(Cl)cc(Cl)c2)O1,1.02 ± 0.015
8,CN1C(=O)c2cc(NC(=O)Cc3cccs3)ccc2OC[C@@H]2O[C@@H](CC(=O)NCCCN3CCOCC3)CC[C@@H]21,1.09 ± 0.068
9,C[C@@H]1CN([C@H](C)CO)C(=O)CCCn2cc(nn2)CO[C@H]1CN(C)C(=O)Nc1cccc2ccccc12,0.99 ± 0.023
10,C[C@@H]1CCCCO[C@H](CN(C)C(=O)Nc2ccccc2)[C@@H](C)CN([C@H](C)CO)C(=O)c2cc(NC(=O)Nc3ccccc3)ccc2O1,1.1 ± 0.14
11,N#C[C@H]1[C@@H](c2ccccc2-c2ccccc2F)[C@@H](CO)N1C(=O)c1cccc(F)c1,1.16 ± 0.25
12,C[C@H](CO)N1C[C@H](C)[C@H](CN(C)Cc2ccc(C(F)(F)F)cc2)Oc2c(NC(=O)NC3CCCCC3)cccc2C1=O,0.936 ± 0.029
13,O=C(C[C@H]1CC[C@@H](NC(=O)CN2CCOCC2)[C@H](CO)O1)NC1CCC1,1.13 ± 0.11
14,C[C@@H]1CCn2cc(nn2)COC[C@@H](Cc2ccccc2)NC1=O,1.03 ± 0.055
15,CN(C)C(=O)c1cccc(-c2ccccc2[C@H]2[C@H](C#N)N(C(=O)C3CCCCC3)[C@H]2CO)c1,1.06 ± 0.056
16,O=C(CN1CCOCC1)N1CCCCN2[C@H](C1)[C@H](c1ccc(Br)cc1)[C@@H]2CO,0.986 ± 0.015
17,COc1ccc2c3c([nH]c2c1)[C@@H](CO)N(C[C@]31CCN(Cc2cccnc2)CC1)C(=O)c1ccc(F)cc1,0.984 ± 0.1
18,O=C(C[C@@H]1C=C[C@@H](NS(=O)(=O)c2ccccc2)[C@H](CO)O1)NCCN1CCCCC1,1.09 ± 0.12
19,C/C=C/c1ccc([C@H]2[C@@H](C#N)N(c3nc(CC)cs3)[C@H]2CO)cc1,1.09 ± 0.0072
20,COc1ccc2c3c([C@H](CO)N(Cc4ccccc4Cl)C[C@]33CCN(CC3)C(=O)CC3CC3)n(C)c2c1,0.922 ± 0.014
21,CCS(=O)(=O)N1CC(=O)N2[C@H](C1)[C@@H](c1ccc(C#CC3CCCCC3)cc1)[C@@H]2CO,0.98 ± 0.035
22,OC[C@H]1[C@@H](c2ccccc2)C2(CN(Cc3ccccn3)C2)N1Cc1cncnc1,1.08 ± 0.019
23,O=C([C@H]1[C@H](CO)[C@H]2Cn3c(cccc3=O)[C@@H]1N2Cc1cocn1)N1CCCCC1,1.03 ± 0.037
24,Cc1noc(C)c1S(=O)(=O)N(C)C[C@@H]1OCCCC[C@@H](C)Oc2ccc(NC(=O)CCC(F)(F)F)cc2C(=O)N([C@@H](C)CO)C[C@@H]1C,1.09 ± 0.024
